Assay results taken from PubChem BioAssay AID1460 (National Center for Advancing Translational Sciences (NCATS), 2008).
Screen size: about 270,000 compounds; about 5,800 (2.1%) were called active. This list was built around the results that the source calls inconclusive (neither active nor inactive); the mix of calls is not that of the screen. Calls follow the shape of the dose curve; as a rule, active = well fitted inhibition curve with a large enough effect; inconclusive = small, poorly fitted or top-dose-only effect; inactive = flat fitted curve, though single readings scatter. Potencies of inconclusive entries are doubtful fits and often do not repeat.

biological target: Microtubule-associated protein tau (Homo sapiens) (UniProt P10636); assay: qHTS for Inhibitors of Tau Fibril Formation, Thioflavin T Binding; settings: recombinant tau K18 P301L (four-repeat tau fragment), heparin-induced fibrillization, ThT fluorescence; series mostly up to 57.4 µM; also: nearly all actives have a fitted effect of over 55% in size
Summary of the method: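 Heparin-induced fibrillization of the P301L-mutant K18 repeat-domain fragment of human tau was followed by ThT binding in quantitative high-throughput format.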
Potency is read from the fitted curve at half-maximal effect; tags tell the direction and shape of the fitted curve.

UniProt P10636, sequence (P10636 whole entry, looked up, the tested form may be a part): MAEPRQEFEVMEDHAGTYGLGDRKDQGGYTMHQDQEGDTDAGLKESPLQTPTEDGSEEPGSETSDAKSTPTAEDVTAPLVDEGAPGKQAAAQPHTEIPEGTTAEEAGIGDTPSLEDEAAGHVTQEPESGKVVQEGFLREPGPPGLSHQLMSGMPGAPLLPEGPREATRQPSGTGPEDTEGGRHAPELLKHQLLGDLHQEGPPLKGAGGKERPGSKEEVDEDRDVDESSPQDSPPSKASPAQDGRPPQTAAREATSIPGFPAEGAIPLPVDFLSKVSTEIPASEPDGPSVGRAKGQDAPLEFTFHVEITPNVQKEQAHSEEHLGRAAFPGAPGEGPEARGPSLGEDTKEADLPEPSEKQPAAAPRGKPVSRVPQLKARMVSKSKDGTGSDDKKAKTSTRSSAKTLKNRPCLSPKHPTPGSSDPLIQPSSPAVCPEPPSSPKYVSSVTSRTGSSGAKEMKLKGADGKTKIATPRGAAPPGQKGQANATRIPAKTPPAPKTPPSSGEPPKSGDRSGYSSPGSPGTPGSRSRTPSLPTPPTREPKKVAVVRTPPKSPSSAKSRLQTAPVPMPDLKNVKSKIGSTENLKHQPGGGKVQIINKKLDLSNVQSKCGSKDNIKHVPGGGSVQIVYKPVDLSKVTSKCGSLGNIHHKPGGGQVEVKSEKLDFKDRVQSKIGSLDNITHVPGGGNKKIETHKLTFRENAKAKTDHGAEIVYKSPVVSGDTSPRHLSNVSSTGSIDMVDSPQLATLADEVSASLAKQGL

Row | Structure (SMILES) | Potency
1 | Cc1cc(=O)oc2cc(OCc3ccc(C(=O)N4CCN(c5ccccc5)CC4)cc3)ccc12 | inconclusive: 1.41 µM [inhibitor, full curve]
2 | CCc1cc2ccc(C)cc2nc1SCC(=O)Nc1cc(OC)c(OC)cc1C(=O)O | inconclusive: 20 µM [inhibitor, partial curve]
3 | Cc1nn(-c2ccccn2)c(N)c1N=O | inconclusive: 17.8 µM [inhibitor, partial curve, poor fit]
4 | Cc1cccc(Nc2nc(NCc3ccco3)nc(N3CCOCC3)n2)c1 | inconclusive: 22.4 µM [inhibitor, partial curve]
5 | O=C(C(Cc1ccccc1)N1C(=O)c2ccccc2C1=O)N1c2ccccc2CCc2ccccc21 (stereo not given) | inconclusive: 44.7 µM [inhibitor, single point]
6 | CCOC(=O)N1CCN(CC(=O)Nc2c(C(=O)OC)[nH]c3cc(C)ccc23)CC1 | inconclusive: 28.2 µM [inhibitor, single point]
7 | Cc1ccc(-c2nc(CN(Cc3c(C)nn(C)c3C)C(C)C)c(C)o2)o1 | inactive
8 | COc1ccc(C(C(=O)Nc2ccc(C(C)C)cc2)N(C)C(=O)Cc2cccs2)cc1 (stereo not given) | inconclusive: 22.4 µM [inhibitor, single point]
9 | Cc1ccc(C)c(OCCSc2nnc(-c3cccnc3)n2N)c1 | inconclusive: 7.08 µM [inhibitor, partial curve]
10 | COc1ccc(-c2csc(NC(=O)C3CCCCN3S(=O)(=O)c3ccccc3)n2)cc1 (stereo not given) | inconclusive: 5.01 µM [inhibitor, partial curve]
11 | COc1ccc(NC(=S)NC(NC(=O)c2cccc(Cl)c2)C(Cl)(Cl)Cl)c([N+](=O)[O-])c1 (stereo not given) | inconclusive: 8.91 µM [inhibitor, partial curve]
12 | COC(=O)c1ccc(OC(=O)c2ccccn2)cc1 | inconclusive: 20 µM [inhibitor, partial curve]
13 | Cc1cccc(N2CCN(C(=O)c3cc4c(=O)[nH]c5ccc(C)cc5c4s3)CC2C)c1 (stereo not given) | inconclusive: 8.91 µM [inhibitor, full curve]
14 | CCOc1ccc(NC(=S)NCCCN2CCN(c3ccc(OC)cc3)CC2)cc1 | inconclusive: 15.8 µM [inhibitor, partial curve]
15 | Cc1cccc(CNc2ccnc(-c3ccoc3)n2)c1 | inconclusive: 12.6 µM [inhibitor, partial curve]
16 | CC(=O)Nc1nnc(-c2c(-c3c(Cl)cccc3Cl)noc2C)o1 | inactive
17 | Nc1c(C(=O)Nc2ccc(Cl)cc2)oc2ccccc12 | inconclusive: 6.31 µM [inhibitor, partial curve]
18 | COc1ccc(C2c3ccc(O)cc3Oc3ncn4nc(-c5cccnc5)nc4c32)cc1OC (stereo not given) | inconclusive: 12.6 µM [inhibitor, partial curve, poor fit]
19 | COC(=O)COc1ccc2c(=O)c(-c3ccccc3OC)coc2c1 | inactive
20 | NC(=O)c1oc2ccccc2c1NC(=O)c1ccc(F)cc1 | inconclusive: 28.2 µM [inhibitor, single point]
21 | O=C(/C=C/c1ccco1)Nc1ccccc1C(=O)O | inconclusive: 44.7 µM [inhibitor, single point]
22 | Cc1ccc(CNC(=O)C(NS(=O)(=O)c2cccc3nsnc23)c2ccccc2)cc1 (stereo not given) | inconclusive: 22.4 µM [inhibitor, single point]
23 | O=C(CN1CCN(c2ccccn2)CC1)Nc1ccc(Oc2ccccc2)cc1 | inconclusive: 20 µM [inhibitor, single point]
24 | C=CCOC(=O)C(=O)/C=C/c1csc2ccccc12 | inconclusive: 2.82 µM [inhibitor, single point]

Row | Structure (SMILES) | Potency
25 | Cc1ccc2oc(C(=O)Nc3nc(-c4ccc(F)cc4)ns3)c(C)c2c1 | inconclusive: 0.708 µM [inhibitor, full curve, poor fit]
26 | CCC(=O)Nc1ccc(-c2nnc(SCC(=O)Nc3nccs3)n2C)cc1 | inconclusive: 35.5 µM [inhibitor, partial curve]
27 | COc1ccc(Nc2cc(C(=O)NCCCN3CCN(C)CC3)c3ccccc3n2)cc1OC | inconclusive: 31.6 µM [inhibitor, partial curve, poor fit]
28 | COc1ccc(CCNC(=O)c2ccc3c(Cl)c4c(nc3c2)CCCC4)cc1OC | inconclusive: 3.98 µM [inhibitor, full curve]
29 | O=C(CCCn1c(=O)c2cccn2c2cccnc21)Nc1ccccc1C(F)(F)F | inactive
30 | CCCn1c2ccc(F)cc2c2nnc(NN)nc21 | inconclusive: 39.8 µM [inhibitor, single point]
31 | O=[N+]([O-])c1cccc(-c2nc(-c3ccccn3)no2)c1 | inconclusive: 39.8 µM [inhibitor, partial curve]
32 | COC(=O)CNC(=O)[C@@]1(C)C=C[C@@H](Cc2ccccc2)N1C(C)=O | inactive
33 | Cc1ccc(CNC(=O)c2c(-c3ccc(Br)cc3)noc2C)o1 | inactive
34 | c1ccc(CSc2nnc(-c3ccco3)c(-c3ccco3)n2)cc1 | active: 7.94 µM
35 | Cc1cc(CCCCCCCCc2cc(C)cc(=O)o2)oc(=O)c1 | inconclusive: 11.2 µM [inhibitor, partial curve]
36 | COC(=O)N(C)c1ccccc1C(=O)N1CCOCC1 | inactive
37 | O=c1c(N2CCc3ccccc3C2)csc2ccc(F)cc12 | inconclusive: 4.47 µM [inhibitor, partial curve]
38 | CC(=O)/C(=N\Nc1ccc(C)cc1)Sc1nncn1C | inactive
39 | Cc1cc(-c2ccc(F)cc2)nc2cc(C(N)=O)nn12 | inactive
40 | COc1cc(OC)c(OC)cc1CNc1cc(C)ccc1OC | inconclusive: 15.8 µM [inhibitor, single point]
41 | Clc1ccc(/C=C\c2nccc3c2[nH]c2ccccc23)cc1 | inconclusive: 2.24 µM [inhibitor, full curve, poor fit]
42 | CCCn1c(/C=C/c2ccccc2)nc2ccccc21 | inactive
43 | COc1ccc(NS(=O)(=O)c2ccc3oc(SCc4ccc(F)cc4)nc3c2)cc1 | inactive
44 | Cc1c(C(=O)NCCc2ccc(Cl)cc2)cccc1-n1cnc2cccnc21 | inactive
45 | COc1ccc(N2CCN(C(=O)c3cc(-c4ccc(C)c(F)c4)on3)CC2)cc1 | inconclusive: 15.8 µM [inhibitor, partial curve]
46 | COc1ccc(N2CCN(C(=O)CSc3nc4ccccc4nc3Cc3ccc(Cl)cc3)CC2)cc1 | inconclusive: 14.1 µM [inhibitor, partial curve]
47 | Cc1c(C(=O)N2CCOCC2)sc2ncnc(N3CCc4ccccc4C3)c12 | inactive
48 | CCOc1ccc(OCc2ccc(C(=O)Nc3cccc(C)n3)o2)cc1 | inconclusive: 20 µM [inhibitor, partial curve]

Row | Structure (SMILES) | Potency
49 | CCCCN(C)C(=O)c1sc2ncn(CC)c(=O)c2c1C | inactive
50 | COc1cc(Cl)c(C)cc1NC(=O)CCCN1C(=O)CCC1=O | inactive
51 | Cc1noc(NS(=O)(=O)c2ccc(NC(=O)CSc3nc4c(cc3C#N)CCCCC4)cc2)c1C | inconclusive: 28.2 µM [inhibitor, partial curve, poor fit]
52 | C/C(=N\NC(=S)NCCc1ccccc1)c1ccc(C)cc1 | inactive
53 | CC(=O)c1cccc(NC(=S)NC(=O)C(C)C)c1 | inactive
54 | COc1ccc(-n2c(=O)c3ccccc3c3ccccc3c2=O)c(OC)c1 | inconclusive: 28.2 µM [inhibitor, single point]
55 | CCn1c2c(c(=O)n3ncc(C(=O)Nc4ccc(C(=O)OC)cc4)c13)CN(Cc1ccc(OC)cc1)CC2 | inconclusive: 31.6 µM [inhibitor, single point]
56 | COc1ccc(C)cc1NC(=O)c1ccc2nc(Cc3ccccc3)oc2c1 | inconclusive: 39.8 µM [inhibitor, single point]
57 | Cc1ccc(NC(=O)C(=O)NCC(c2cccnc2)N2CCN(C)CC2)cc1 (stereo not given) | inconclusive: 2.24 µM [inhibitor, partial curve]
58 | Cc1coc2c1c(C)cc1oc(=O)c(CC(=O)NCCc3ccc(Cl)cc3)c(C)c12 | inactive
59 | CC(C)(C)OC(=O)N1CCC(c2c(C(=O)NCc3ccc4c(c3)OCO4)cnn2-c2ccc(F)cc2F)CC1 | inactive
60 | O=C(Nc1ccc(Cl)cc1)C1CCN(c2nc3ccccc3n3cccc23)CC1 | inactive
61 | Cc1ccc(S(=O)(=O)n2nc(OC(=O)c3cccs3)cc2N)cc1 | inconclusive: 20 µM [inhibitor, partial curve]
62 | CCCC(=O)Nc1ccc2c(c1)COC2=O | inconclusive: 8.91 µM [inhibitor, partial curve]
63 | O=C1CSC(c2cccnc2)N1Cc1cccnc1 (stereo not given) | inconclusive: 44.7 µM [inhibitor, single point]
64 | Cc1ccc(NCC(=O)N/N=C/c2ccc(-c3cccc(C(F)(F)F)c3)o2)cc1 | inconclusive: 11.2 µM [inhibitor, partial curve]
65 | COc1ccc(Br)cc1CNC(=O)CCCn1c(=O)c2cccn2c2ccccc21 | inconclusive: 2.51 µM [inhibitor, partial curve]
66 | CCOC(=O)Cc1csc(NC(=O)c2csc3c2CCCC3)n1 | inconclusive: 39.8 µM [inhibitor, single point]
67 | O=C(O)c1cc(-c2ccccc2)n(-c2ccccc2C(=O)O)n1 | inconclusive: 28.2 µM [inhibitor, single point]
68 | CC1=C(C)C(=O)C(CCCCC#CCCCC#CCO)=C(C)C1=O | active: 20 µM
69 | O=C(Nc1ccc(Cl)cc1Cl)c1cc(S(=O)(=O)N2CCN(c3ccccc3F)CC2)ccc1F | inactive
70 | Cc1cc([N+](=O)[O-])cc(C)c1OCC(=O)N/N=C/c1ccc(OC(=O)c2ccccc2)cc1 | inactive
